The inconclusive results got no clear call from the source; some entries with a clear call stand among them for comparison. For some of these results: A potency beside an inconclusive call is a rough fit, not a confirmed value. Activity calls are given as the source filed them. Unless noted, calls follow the shape of the dose curve; as a rule, active = well fitted curve in the direction sought with a large enough effect; inconclusive = small, poorly fitted or top-dose-only effect, or another doubt; inactive = no such curve, though single readings can be large; an effect the other way counts as inactive or inconclusive.
Columns and labels:
[1] = NFAT Signaling Pathway (AID 444; active = well fitted curve in either direction with a large enough effect, not every such curve was filed as active; inconclusive = small, poorly fitted or top-dose-only effect, or another doubt;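 also: carbachol stimulus at about its EC50 of 1 µM final; % is scaled to controls: 0 for no effect and ±100 for the full control effect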); conditions: Jurkat NFAT-bla M1, carbachol, beta-lactamase ratio, 5 h; at 7.69 µM (top of the series) unless noted
In short: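 Read-out: CCF4 FRET ratio (460 nm/530 nm) after 1 h RT dye loading, used for %activity and AC50 from titration series. Cells: Jurkat NFAT-β-lactamase/M1 line, treated with compound plus 1 uM carbachol for 5 h, 37 °C.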

[2] = molecular target: Glucocorticoid receptor (Homo sapiens) (UniProt P04150); assay: GR-EFC Redistribution (AID 451; calls by dose curve; also: potency is read from the fitted curve at half-maximal effect); conditions: CHO-K1 GR-EFC translocation, beta-gal luminescence, 2 h
Chain of UniProt P04150 (P04150 whole entry, looked up, the tested form may be a part): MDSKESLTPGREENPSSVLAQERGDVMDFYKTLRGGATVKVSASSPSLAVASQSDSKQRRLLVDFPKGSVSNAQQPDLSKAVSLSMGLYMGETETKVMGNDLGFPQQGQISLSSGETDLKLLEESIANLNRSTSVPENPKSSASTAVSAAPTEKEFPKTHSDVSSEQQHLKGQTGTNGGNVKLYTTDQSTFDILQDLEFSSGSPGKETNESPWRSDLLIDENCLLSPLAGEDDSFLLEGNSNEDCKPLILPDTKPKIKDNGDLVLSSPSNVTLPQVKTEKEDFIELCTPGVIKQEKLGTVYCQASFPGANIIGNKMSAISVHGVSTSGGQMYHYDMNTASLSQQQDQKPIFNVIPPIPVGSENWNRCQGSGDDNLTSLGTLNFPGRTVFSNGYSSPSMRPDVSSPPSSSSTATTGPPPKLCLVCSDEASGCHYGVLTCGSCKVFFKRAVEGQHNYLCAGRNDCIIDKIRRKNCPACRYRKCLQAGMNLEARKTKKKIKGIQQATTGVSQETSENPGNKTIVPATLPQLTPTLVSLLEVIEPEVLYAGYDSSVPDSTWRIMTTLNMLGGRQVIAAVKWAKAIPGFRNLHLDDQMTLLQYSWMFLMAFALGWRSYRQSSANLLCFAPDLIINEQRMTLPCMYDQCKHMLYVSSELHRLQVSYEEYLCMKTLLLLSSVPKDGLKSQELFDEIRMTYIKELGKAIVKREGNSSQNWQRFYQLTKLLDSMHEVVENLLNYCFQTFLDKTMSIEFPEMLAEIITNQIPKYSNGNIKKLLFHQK
In short: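 Translocation of GR-ED fusion to nuclear EA restores b-gal, read by luminescence after 1 h room-temperature detection. Engineered CHO-K1 biosensor cells, 1,000/well, exposed 2 h at 37 C to titrations up to 46 uM final.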

[3] = molecular target: Mitogen-activated protein kinase 10 (Mus musculus) (UniProt Q61831); assay: JNK3 AlphaScreen Assay (AID 530; active = well fitted curve in either direction with a large enough effect, not every such curve was filed as active; inconclusive = small, poorly fitted or top-dose-only effect, or another doubt;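 also: kinase came from lysate of stimulated human HepG2 cells; signal reports phosphorylation of biotinylated GST-cJun 1-79 at Ser73 with 10 µM ATP; % is scaled to controls: 0 for no effect and ±100 for the full control effect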); conditions: JNK3 lysate, c-Jun phosphorylation; activity change, negative = inhibition: at 57.1 µM (top of the series)
In short: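 qHTS titrations with 15 min compound pre-incubation before adding ATP (10 uM final). Read-out: AlphaScreen of Ser73-phosphorylated biotin-GST-cJun using HepG2 lysate JNK3 activated by IL-1β and TNFα.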

[4] = molecular target: Guanine nucleotide-binding protein G(i) subunit alpha-1 (Homo sapiens) (UniProt P63096); assay: qHTS Assay for Inhibitors of RGS12 GoLoco Motif Activity (Green Fluorophore) (AID 879); also: potency is read from the fitted curve at half-maximal effect
Chain of UniProt P63096 (P63096 whole entry, looked up): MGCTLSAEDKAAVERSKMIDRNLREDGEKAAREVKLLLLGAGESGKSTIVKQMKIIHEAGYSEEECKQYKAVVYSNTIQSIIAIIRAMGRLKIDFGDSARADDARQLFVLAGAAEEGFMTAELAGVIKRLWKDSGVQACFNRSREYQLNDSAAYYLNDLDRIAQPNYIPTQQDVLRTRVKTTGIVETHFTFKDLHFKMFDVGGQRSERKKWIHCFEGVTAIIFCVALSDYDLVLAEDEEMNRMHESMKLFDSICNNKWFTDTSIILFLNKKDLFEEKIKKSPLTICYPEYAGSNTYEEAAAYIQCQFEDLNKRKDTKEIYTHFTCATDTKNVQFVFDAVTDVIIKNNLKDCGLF
In short: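 A drop in FITC polarization marked displacement of the FITC-tagged RGS12 GoLoco peptide (10 nM) from Gαi1 (50 nM). Compounds were incubated 10 min at room temperature in Tris pH 7.5 buffer containing 150 mM NaCl, 0.1 mM GDP and 0.05% NP40; unlabeled peptide titration served as control.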

[5] = molecular target: Cytochrome P450 3A4 (Homo sapiens) (UniProt P08684); assay: qHTS Assay for Activators of Cytochrome P450 3A4 (AID 885); conditions: recombinant CYP3A4, Luciferin-PPXE luminescence, 60 min; activity change, positive = activation: at 57.1 µM (top of the series); also: nearly all actives have a fitted effect of over 65% in size
Chain of UniProt P08684 (P08684 whole entry, looked up): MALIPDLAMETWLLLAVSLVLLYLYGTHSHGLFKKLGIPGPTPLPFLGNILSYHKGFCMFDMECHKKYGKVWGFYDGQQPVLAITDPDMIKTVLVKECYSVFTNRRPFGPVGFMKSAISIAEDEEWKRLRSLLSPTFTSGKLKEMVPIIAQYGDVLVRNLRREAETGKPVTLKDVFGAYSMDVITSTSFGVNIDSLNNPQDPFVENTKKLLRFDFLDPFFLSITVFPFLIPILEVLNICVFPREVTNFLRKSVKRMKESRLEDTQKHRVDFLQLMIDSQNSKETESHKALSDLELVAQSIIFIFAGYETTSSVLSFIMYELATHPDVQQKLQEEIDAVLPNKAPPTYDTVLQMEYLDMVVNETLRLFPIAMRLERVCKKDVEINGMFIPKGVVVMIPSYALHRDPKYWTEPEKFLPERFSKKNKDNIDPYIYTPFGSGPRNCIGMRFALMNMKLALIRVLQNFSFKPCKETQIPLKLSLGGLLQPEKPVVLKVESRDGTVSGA
In short: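 Activators are scored by enhanced luminescence from CYP3A4 conversion of luciferin-PPXE (25uM, equal to KM) to luciferin, after 60 min at RT with an NADPH-regenerating system.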

[6] = qHTS Assay for Identification of Small Molecule Antagonists for NFkB Signaling Pathway (AID 895; active = well fitted inhibition curve with a large enough effect in the signal ratio, with a control signal flat, not every such curve was filed as active; inconclusive = small, poorly fitted or top-dose-only effect, or effect the other way, or a change in a side signal; the % refers to the signal ratio; also: % is scaled to controls: 0 for no effect and ±100 for the full control effect); conditions: NFkB beta-lactamase reporter cells, FRET ratio 460/530; activity change, negative = inhibition: at 38.3 µM (top of the series) unless noted
In short: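 Beta-lactamase reporter read-out (460 and 530 nm emission ratio, 405 nm excitation, 2 hrs substrate loading RT) after 5 hr stimulation with 10 pM TNF alpha in compound-treated NFkB-bla ME-180 cells in low-serum medium.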

[7] = qHTS Assay for Identification of Small Molecule Agonists for Thrombopoietin (TPO) Signaling Pathway (AID 917); also: potency is read from the fitted curve at half-maximal effect
In short: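 Stimulation at the TPO EC50 (26 pM final) was used to detect activators. Ba/F3 mouse cells bearing human TPO receptor and a luciferase reporter under the Glycoprotein IIb promoter were exposed to compounds for 24 hrs at 37 C.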

[8] = qHTS Assay for Identification of Small Molecule Antagonists for Thrombopoietin (TPO) Signaling Pathway (AID 918); conditions: TPO-dependent cell signaling reporter, antagonist mode; activity change, negative = inhibition: at 38.5 µM (top of the series); also: nearly all actives have a fitted effect of over 60% in size; also: potency is read from the fitted curve at half-maximal effect
In short: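 Inhibition read as reduced luciferase luminescence after 24 h at 37 C in IL-3-deprived Ba/F3 cells carrying human TPO receptor and GPIIb-promoter reporter, stimulated with 26 pM TPO (final, its EC50) alongside compound.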

[9] = molecular target: Muscarinic acetylcholine receptor M1 (Rattus norvegicus) (UniProt P08482); assay: qHTS Assay for Antagonists of Acetylcholine Muscarinic M1 Receptor: Measurement of IP-One Response (AID 944); also: potency is read from the fitted curve at half-maximal effect; nearly all actives have a fitted effect of over 75% in size
Chain of UniProt P08482 (P08482 whole entry, looked up): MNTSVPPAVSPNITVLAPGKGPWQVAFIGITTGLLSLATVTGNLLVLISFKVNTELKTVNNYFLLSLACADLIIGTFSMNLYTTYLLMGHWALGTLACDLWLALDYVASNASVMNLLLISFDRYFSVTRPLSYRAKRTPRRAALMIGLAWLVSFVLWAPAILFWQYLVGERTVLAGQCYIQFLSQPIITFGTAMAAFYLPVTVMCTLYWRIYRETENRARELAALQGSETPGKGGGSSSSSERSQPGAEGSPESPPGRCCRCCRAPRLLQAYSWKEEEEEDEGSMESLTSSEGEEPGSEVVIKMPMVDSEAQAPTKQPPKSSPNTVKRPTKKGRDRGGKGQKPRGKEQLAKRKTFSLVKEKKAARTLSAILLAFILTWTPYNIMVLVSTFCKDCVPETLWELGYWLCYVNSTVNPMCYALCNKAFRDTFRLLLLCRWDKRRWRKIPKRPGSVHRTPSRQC

[10] = molecular target: Pyruvate kinase PKM (Homo sapiens) (UniProt P14618); assay: qHTS Assay for Activators of Human Muscle Pyruvate Kinase (AID 954; active = well fitted curve in the direction sought with a large enough effect, not every such curve was filed as active; inconclusive = small, poorly fitted or top-dose-only effect, or effect the other way, or another doubt; inactive = no such curve, though single readings can be large or run the other way; also: potency is read from the fitted curve at half-maximal effect); conditions: purified human muscle pyruvate kinase, luciferase-coupled luminescence, 1 h
In short: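 PKM2, human, >95% pure, 0.1 nM; PEP 0.5 mM (Km), ADP 0.1 mM; 50 mM imidazole pH 7.2, 50 mM KCl, 0.01% Tween 20, 0.05% BSA; 1 h RT; luciferase luminescence readout.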

[11] = Stat Signaling Pathway (AID 446; active = well fitted curve in either direction with a large enough effect, not every such curve was filed as active; inconclusive = small, poorly fitted or top-dose-only effect, or another doubt;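 also: ME-180 cervical cancer cells given 40 pM IL-6 alongside compound; SIE-controlled beta-lactamase reporter measured as 460/530 nm FRET emission ratio; top concentration of the series differs between compounds; % is scaled to controls: 0 for no effect and ±100 for the full control effect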); conditions: ME-180 SIE beta-lactamase reporter, IL-6 stimulated, 5 h; at 38 µM (top of the series) unless noted
In short: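 Emission at 460 and 530 nm (excitation 405 nm) reports SIE-controlled beta-lactamase in ME-180 cells. Cells received compound with 40 pM IL-6 for 5 hrs at 37 C; data scaled between 300 pM IL-6 and 125 nM JAK-inhibitor controls.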

[12] = qHTS Assay for Identification of Small Molecule Agonists for Hypoxia Response Element Signaling Pathway (AID 914; active = well fitted activation curve with a large enough effect in the signal ratio, with a control signal flat, not every such curve was filed as active; inconclusive = small, poorly fitted or top-dose-only effect, or effect the other way, or a change in a side signal; the % refers to the signal ratio; also: potency is read from the fitted curve at half-maximal effect; as to activation: top concentration of the series differs between compounds; % of control where 0% means no effect); conditions: ME-180 (cervical carcinoma) HRE-bla reporter, beta-lactamase ratio, CoCl2, 17 h; activation: active compounds read high
In short: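 qHTS titration; ME-180 HRE-bla cells; EC50 CoCl2 co-treatment, 17 h at 37 degrees Celsius; CCF4 dye, ex 405nm, em 460nm and 530nm; %Activity from ratio; AC50.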

[13] = molecular target: 3',5'-cyclic-AMP phosphodiesterase 4B (Homo sapiens) (UniProt Q07343); assay: qHTS Assay for Inhibitors of PDE-IV (AID 607; active = well fitted activation curve with a large enough effect in the main read-out, with a control signal flat, not every such curve was filed as active; inconclusive = small, poorly fitted or top-dose-only effect, or effect the other way, or a change in a side signal; also: % of control where 0% means no effect); conditions: HEK293 ACTOne CNG channel cells, membrane potential fluorescence; activation (PDE inhibition): at 22.9 µM (top of the series)
Chain of UniProt Q07343 (Q07343 whole entry, looked up): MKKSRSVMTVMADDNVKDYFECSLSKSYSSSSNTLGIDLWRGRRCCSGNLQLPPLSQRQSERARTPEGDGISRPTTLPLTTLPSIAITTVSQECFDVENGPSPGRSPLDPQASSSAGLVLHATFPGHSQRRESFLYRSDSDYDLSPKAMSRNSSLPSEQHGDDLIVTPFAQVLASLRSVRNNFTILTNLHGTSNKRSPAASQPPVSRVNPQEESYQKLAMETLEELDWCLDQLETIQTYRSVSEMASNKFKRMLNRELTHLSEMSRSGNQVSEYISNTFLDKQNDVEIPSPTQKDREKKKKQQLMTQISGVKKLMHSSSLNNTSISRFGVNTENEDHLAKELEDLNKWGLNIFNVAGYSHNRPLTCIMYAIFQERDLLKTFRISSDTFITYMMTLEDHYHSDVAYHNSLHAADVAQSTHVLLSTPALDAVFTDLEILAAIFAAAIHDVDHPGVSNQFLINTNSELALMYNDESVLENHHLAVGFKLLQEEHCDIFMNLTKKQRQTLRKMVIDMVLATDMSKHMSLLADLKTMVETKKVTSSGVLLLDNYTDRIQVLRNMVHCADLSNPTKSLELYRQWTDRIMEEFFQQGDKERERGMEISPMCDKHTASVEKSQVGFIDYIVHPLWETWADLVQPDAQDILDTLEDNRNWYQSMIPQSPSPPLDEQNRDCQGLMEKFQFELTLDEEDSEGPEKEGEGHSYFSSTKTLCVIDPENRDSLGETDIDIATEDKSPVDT
In short: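 The readout is membrane depolarisation from a cAMP-sensing CNG channel, detected with a potential dye at ex 535/em 590. Cells were HEK293-derived (endogenous PDE-IV) at 1000 cells/well, titrated up to 22.9 uM final.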

[14] = molecular target: Cytochrome P450 2C19 (Homo sapiens) (UniProt P33261); assay: qHTS Assay for Inhibitors and Substrates of Cytochrome P450 2C19 (AID 899); also: top concentration of the series differs between compounds; % is scaled to controls: 0 for no effect and ±100 for the full control effect; nearly all actives have a fitted effect of over 60% in size
Chain of UniProt P33261 (P33261 whole entry, looked up): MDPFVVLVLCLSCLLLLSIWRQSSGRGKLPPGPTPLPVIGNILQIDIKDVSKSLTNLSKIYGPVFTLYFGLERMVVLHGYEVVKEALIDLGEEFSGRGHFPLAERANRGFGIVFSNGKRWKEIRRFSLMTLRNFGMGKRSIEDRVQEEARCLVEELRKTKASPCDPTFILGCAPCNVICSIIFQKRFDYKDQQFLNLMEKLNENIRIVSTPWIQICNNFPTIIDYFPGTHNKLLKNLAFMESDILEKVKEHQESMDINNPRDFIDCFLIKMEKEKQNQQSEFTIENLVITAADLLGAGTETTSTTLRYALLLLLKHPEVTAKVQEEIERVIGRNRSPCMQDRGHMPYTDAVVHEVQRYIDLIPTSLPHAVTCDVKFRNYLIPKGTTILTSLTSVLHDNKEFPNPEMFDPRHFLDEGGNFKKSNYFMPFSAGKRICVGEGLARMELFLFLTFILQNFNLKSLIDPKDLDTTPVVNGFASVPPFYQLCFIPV
In short: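 Reactions contain 5nM enzyme, 10uM Luciferin-H EGE (KM) and 50mM KPO4; compound preincubates 10 min at 37C, NADPH regeneration starts turnover for 60 min. Luminescence after detection reagent gives activity.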

[15] = molecular target: Cytochrome P450 2C9 (Homo sapiens) (UniProt P11712); assay: qHTS Assay for Inhibitors and Substrates of Cytochrome P450 2C9 (AID 883); also: potency is read from the fitted curve at half-maximal effect; nearly all actives have a fitted effect of over 60% in size
Chain of UniProt P11712 (P11712 whole entry, looked up): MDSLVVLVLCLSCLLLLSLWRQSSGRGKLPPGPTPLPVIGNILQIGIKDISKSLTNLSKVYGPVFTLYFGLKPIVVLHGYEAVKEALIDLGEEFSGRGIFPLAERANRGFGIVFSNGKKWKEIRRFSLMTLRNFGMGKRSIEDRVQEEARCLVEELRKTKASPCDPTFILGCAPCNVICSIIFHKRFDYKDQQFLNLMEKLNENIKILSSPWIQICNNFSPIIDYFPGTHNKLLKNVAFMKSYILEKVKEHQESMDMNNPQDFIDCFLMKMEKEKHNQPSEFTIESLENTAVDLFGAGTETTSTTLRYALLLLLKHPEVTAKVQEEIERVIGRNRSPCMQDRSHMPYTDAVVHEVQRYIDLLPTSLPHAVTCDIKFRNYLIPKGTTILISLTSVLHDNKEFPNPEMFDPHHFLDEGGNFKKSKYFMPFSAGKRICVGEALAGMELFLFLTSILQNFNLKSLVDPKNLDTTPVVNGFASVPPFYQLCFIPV
In short: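 Turnover of Luciferin-H (100uM, KM) by 10nM human CYP2C9 was measured over 60 min at 37C with NADPH regeneration; inhibitors and some substrates reduce luminescence. Data normalized to sulphaphenazole 57uM.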

[16] = molecular target: Tyrosyl-DNA phosphodiesterase 1 (Homo sapiens) (UniProt Q9NUW8); assay: Confirmation Assay for Inhibitors of Tyrosyl-DNA Phosphodiesterase (TDP1) (AID 489007); conditions: recombinant human TDP1 enzymatic activity, dose-response; also: potency is read from the fitted curve at half-maximal effect; nearly all actives have a fitted effect of over 40% in size
In short: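 AlphaScreen assay of tyrosine-FITC cleavage from a biotinylated DNA substrate (15 nM) by E. coli-expressed human Tdp1 (1 nM). Sequence: compound preincubation 15 min, reaction 5 min, bead detection 10 min, all at room temperature. No-enzyme wells give maximum signal.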

[17] = molecular target: Muscarinic acetylcholine receptor M1 (Rattus norvegicus) (UniProt P08482); assay: qHTS Assay for Antagonists of Acetylcholine Muscarinic M1 Receptor: Kinetic Measurement of Intracellular Calcium Response (AID 943); also: potency is read from the fitted curve at half-maximal effect; nearly all actives have a fitted effect of over 75% in size
In short: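 Antagonism measured as reduction of carbachol-evoked (EC80, 100 nM final) calcium flux in rat M1-CHO cells after 10 min compound exposure. Fluo-4 signal read kinetically; ratio of maximal to basal fluorescence.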

[18] = molecular target: Ubiquitin carboxyl-terminal hydrolase 1 (Homo sapiens) (UniProt O94782); assay: Inhibitors of USP1/UAF1: Pilot qHTS (AID 504865);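 also: rhodamine fluorescence freed from ubiquitin-rhodamine substrate followed over time; top concentration of the series differs between compounds; % is scaled to controls: 0 for no effect and ±100 for the full control effect; nearly all actives have a fitted effect of over 35% in size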
Chain of UniProt O94782 (O94782 whole entry, looked up): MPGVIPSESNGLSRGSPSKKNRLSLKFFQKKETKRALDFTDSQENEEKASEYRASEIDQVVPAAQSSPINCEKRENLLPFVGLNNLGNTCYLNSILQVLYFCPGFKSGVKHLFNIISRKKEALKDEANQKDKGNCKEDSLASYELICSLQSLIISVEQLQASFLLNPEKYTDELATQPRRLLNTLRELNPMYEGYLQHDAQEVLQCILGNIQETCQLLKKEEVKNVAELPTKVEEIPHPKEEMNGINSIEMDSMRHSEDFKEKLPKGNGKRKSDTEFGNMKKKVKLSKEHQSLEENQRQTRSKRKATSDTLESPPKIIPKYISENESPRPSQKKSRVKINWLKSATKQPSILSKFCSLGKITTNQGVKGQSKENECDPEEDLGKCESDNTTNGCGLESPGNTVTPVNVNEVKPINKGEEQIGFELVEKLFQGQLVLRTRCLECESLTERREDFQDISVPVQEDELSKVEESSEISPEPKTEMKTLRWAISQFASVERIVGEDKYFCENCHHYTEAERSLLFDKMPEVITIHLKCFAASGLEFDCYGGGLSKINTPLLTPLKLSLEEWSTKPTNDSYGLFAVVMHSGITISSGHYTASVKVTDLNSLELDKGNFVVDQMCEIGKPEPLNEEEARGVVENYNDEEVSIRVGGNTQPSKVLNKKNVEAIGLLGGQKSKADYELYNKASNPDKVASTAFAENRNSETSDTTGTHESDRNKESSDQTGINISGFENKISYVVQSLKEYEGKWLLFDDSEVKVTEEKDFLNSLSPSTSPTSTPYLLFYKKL
In short: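 USP1/UAF1 complex at 1 nM preincubated 15 min at room temperature with compound, then Ub-Rho substrate added at 150 nM final. Fluorescence (480/540 nm) read kinetically in 50 mM HEPES pH 7.8, 0.5 mM EDTA, 1 mM TCEP, 0.1 mg/ml BSA, 0.01% Tween-20.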

C2A = assay: qHTS profiling for inhibitors of Plasmodium falciparum proliferation (AID 504749); also: nearly all actives have a fitted effect of over 60% in size; also: potency is read from the fitted curve at half-maximal effect;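 as to activity, negative = inhibition: 0% = DMSO vehicle and full inhibition = artemisinin control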; conditions: P. falciparum in erythrocytes, SYBR Green DNA, 72 h; series mostly up to 28.7 µM
In short: (§1)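 SYBR Green fluorescence of parasite DNA, read after lysis and overnight dark incubation, measured growth over 72 h in erythrocyte culture at 0.3% parasitemia and 2.5% hematocrit. Data normalised to DMSO and 0.29 uM artemisinin, with plate-drift correction.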

CP201 = assay: as above; conditions: P. falciparum in erythrocytes, SYBR Green DNA, 72 h; series mostly up to 28.7 µM
In short: as §1

DFO2036 = assay: as above; conditions: P. falciparum in erythrocytes, SYBR Green DNA, 72 h; series mostly up to 28.7 µM
In short: as §1

ICS = assay: as above; conditions: P. falciparum in erythrocytes, SYBR Green DNA, 72 h; series mostly up to 28.7 µM
In short: as §1

PC49 = assay: as above; conditions: P. falciparum in erythrocytes, SYBR Green DNA, 72 h; series mostly up to 28.7 µM
In short: as §1

W2 = assay: as above; conditions: P. falciparum in erythrocytes, SYBR Green DNA, 72 h; series mostly up to 28.7 µM
In short: as §1
Tags tell the direction and shape of the fitted curve or compound fluorescence and quenching.

Q: Which activity change, negative = inhibition [1] does the source give for `C=CCN1CCc2cccc3c2[C@@H]1Cc1ccc(O)c(O)c1-3` here?
A: The activity change, negative = inhibition was inconclusive: -38.9% [inhibitor] [at 38 µM].

Q: What about the Potency [2] of the same compound?
A: Its Potency is inconclusive: 19.4 µM [single point].

Q: And the activity change, negative = inhibition [3]?
A: The activity change, negative = inhibition was inconclusive: 8.72%.

Q: What about the Potency [4] of the same compound?
A: The Potency was inconclusive: 39.8 µM [inhibitor, single point].

Q: And the Potency [5]?
A: The Potency was “inactive”.

Q: What about the activity change, negative = inhibition [6] of the same compound?
A: Its activity change, negative = inhibition is inconclusive: 43.5%.

Q: And the Potency [7]?
A: The Potency was inconclusive: 10 µM [inhibitor, partial curve].

Q: And the Potency [8]?
A: Its Potency is active: 10 µM.

Q: What about the Potency [9] of the same compound?
A: Its Potency is inconclusive: 5.01 µM [inhibitor, partial curve, poor fit].

Q: What about the Potency [10] of the same compound?
A: Its Potency is inconclusive: 10 µM [activator, partial curve].

Q: What does the source list for `CC1=C(C(=O)OC(C)C)[C@]2(C(=O)N(CC(N)=O)c3ccccc32)C(C#N)=C(N)O1`?
A: activity change, negative = inhibition [1]: inactive: -13.4% [at 17.2 µM]; activity, negative = inhibition [11]: inactive: 11.1% [at 17.2 µM]; activation [12]: inactive: -4.16%

Q: For `CN[C@H]1[C@H](C)O[C@@H](O[C@@H]2C/C=C(/C)C/C(C)=C\C=C/CC[C@@H](C)CNC(=O)/C=C\C=C/[C@H]2C)C[C@@H]1O`, which activity change, negative = inhibition [1] is on record?
A: Its activity change, negative = inhibition is inconclusive: -65.7% [inhibitor].

Q: And the Potency [2]?
A: The Potency was inactive: > 9.22 µM.

Q: And the Potency [13]?
A: The Potency was “inactive”.

Q: And the activity, negative = inhibition [14]?
A: The activity, negative = inhibition was inactive: 36.2% [at 11.4 µM].

Q: With `CC(=O)O/C(=C1/C[C@H]2[C@@H]3CC=C4C[C@@H](OC(C)=O)CC[C@]4(C)[C@@H]3CC[C@]2(C)C1=O)C(F)(F)F` as the compound, how does the activity change, negative = inhibition [1] read?
A: Its activity change, negative = inhibition is inconclusive: -35.7% [inhibitor].

Q: And the activity change, negative = inhibition [3]?
A: Its activity change, negative = inhibition is inactive: -0.565% [at 11.4 µM].

Q: What about the Potency [15] of the same compound?
A: Its Potency is inconclusive: 3.16 µM [inhibitor, single point].

Q: And the Potency [12]?
A: The Potency was inconclusive: 0.199 µM [inhibitor, full curve].

Q: For `O=[N+]([O-])c1cc(-c2ccc([As](=O)(O)O)cc2)ccc1[As](=O)(O)O`, which activity change, negative = inhibition [1] is on record?
A: Its activity change, negative = inhibition is inconclusive: 12.9% [activator].

Q: What about the activation [12] of the same compound?
A: Its activation is inactive: 1.51%.

Q: What about the Potency [16] of the same compound?
A: The Potency was active: 89.1 µM.

Q: Which results are given for `C=CCN1CC[C@@]23CCCC[C@@H]2[C@@H]1Cc1ccc(O)cc13`?
A: activity change, negative = inhibition [1]: inactive: -24.3% [at 38 µM]; activity, negative = inhibition [11]: inconclusive: 31.4% [activator]; activity change, negative = inhibition [6]: inconclusive: -13.7%; activity change, negative = inhibition [8]: inconclusive: 25.4% [phenotype inactive]; Potency [17]: inconclusive: 17.8 µM [inhibitor, partial curve, poor fit]

Q: For `C[N+]1([O-])[C@@H]2CC[C@H]1CC(OC(=O)[C@@H](CO)c1ccccc1)C2` (stereo not given in full), which activity change, negative = inhibition [1] is on record?
A: The activity change, negative = inhibition was inconclusive: -45.9% [inhibitor] [at 17.2 µM].

Q: What about the Potency [13] of the same compound?
A: Its Potency is “inactive”.

Q: And the Potency [18]?
A: Its Potency is “inactive”.

Q: And the Potency (C2A)?
A: Its Potency is “inactive”.

Q: And the Potency (CP201)?
A: Its Potency is inconclusive: 0.0003 µM [activator].

Q: And the Potency (DFO2036)?
A: Its Potency is “inactive”.

Q: What about the Potency (ICS) of the same compound?
A: Its Potency is “inactive”.

Q: And the Potency (PC49)?
A: Its Potency is “inactive”.

Q: And the Potency (W2)?
A: Its Potency is “inactive”.

Q: With `Cc1ncc([N+](=O)[O-])n1CCN=[N+]=[N-]` as the compound, how does the activity change, negative = inhibition [1] read?
A: The activity change, negative = inhibition was inactive: 5.75%.

Q: What about the Potency [13] of the same compound?
A: The Potency was “inactive”.

Reference: PubChem BioAssay (NCATS)
